# Data published in the supplement of paper PMC8728848.
# Some of the results follow.
# B1: MAA (Maackia amurensis), P0DKL3 (protein)
# chain: MATSNSKPTQVLLATFLTFFFLLLNNVNSSDELSFTINNFVPNEADLLFQGEASVSSTGVLQLTRVENGQPQKYSVGRALYAAPVRIWDNTTGSVASFSTSFTFVVKAPNPDITSDGLAFYLAPPDSQIPSGSVSKYLGLFNNSNSDSSNQIVAVELDTYFAHSYDPWDPNYRHIGIDVNGIESIKTVQWDWINGGVAFATITYLAPNKTLIASLVYPSNQTTFSVAASVDLKEILPEWVRVGFSAATGYPTEVETHDVLSWSFTSTLEANCDAATENNVHIARYTA
# Experiments:
# Test in all cases: glycan array binding signal (z-score within array); higher = stronger binding
# Details in all cases: glycan notation: IUPAC condensed, linker removed
# [1] = molecular target: Neu5Ac(a2-6)Gal(b1-4)GlcNAc6S
# How it was run: (§1)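 Negative Z-scores can be read as non-binding. The Z-score is calculated within each array and then averaged across arrays of one protein sequence at different concentrations or buffers and across linkers. Arrays, 3228 in all, were curated from the Consortium for Functional Glycomics database and kept only where the protein sequence was available.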
# [2] = molecular target: Neu5Ac(a2-6)GalNAc
# How it was run: as §1
# [3] = molecular target: Neu5Ac(a2-6)GalNAc(b1-4)GlcNAc
# How it was run: as §1
# [4] = molecular target: Neu5Ac(a2-6)GalNAc(b1-4)GlcNAc6S
# How it was run: as §1
# [5] = molecular target: Neu5Ac(a2-6)GlcNAc(b1-4)GlcNAc
# How it was run: as §1
# [6] = molecular target: Neu5Ac(a2-6)GlcNAc(b1-4)GlcNAc(b1-4)GlcNAc
# How it was run: as §1
# [7] = molecular target: Neu5Ac(a2-8)Neu5Ac
# How it was run: as §1
# [8] = molecular target: Neu5Ac(a2-8)Neu5Ac(a2-3)Gal(b1-3)GalNAc(b1-4)[Neu5Ac(a2-3)]Gal(b1-4)Glc
# How it was run: as §1
# [9] = molecular target: Neu5Ac(a2-8)Neu5Ac(a2-3)Gal(b1-3)GalNAc(b1-4)[Neu5Ac(a2-8)Neu5Ac(a2-3)]Gal(b1-4)Glc
# How it was run: as §1
# [10] = molecular target: Neu5Ac(a2-8)Neu5Ac(a2-3)Gal(b1-4)Glc
# How it was run: as §1
# [11] = molecular target: Neu5Ac(a2-8)Neu5Ac(a2-3)Gal(b1-4)GlcNAc
# How it was run: as §1
# [12] = molecular target: Neu5Ac(a2-8)Neu5Ac(a2-3)[Gal(b1-3)GalNAc(b1-4)]Gal(b1-4)Glc
# How it was run: as §1
# [13] = molecular target: Neu5Ac(a2-8)Neu5Ac(a2-3)[GalNAc(b1-4)]Gal(b1-4)Glc
# How it was run: as §1
# [14] = molecular target: Neu5Ac(a2-8)Neu5Ac(a2-8)Neu5Ac
# How it was run: as §1
# [15] = molecular target: Neu5Ac(a2-8)Neu5Ac(a2-8)Neu5Ac(a2-3)Gal(b1-4)Glc
# How it was run: as §1
# [16] = molecular target: Neu5Ac(a2-8)Neu5Ac(a2-8)Neu5Ac(a2-3)[Gal(b1-3)GalNAc(b1-4)]Gal(b1-4)Glc
# How it was run: as §1
# [17] = molecular target: Neu5Ac(a2-8)Neu5Ac(a2-8)Neu5Ac(a2-3)[GalNAc(b1-4)]Gal(b1-4)Glc
# How it was run: as §1
# [18] = molecular target: Neu5Ac(a2-8)Neu5Ac(a2-8)Neu5Ac(a2-8)Neu5Ac(a2-3)[GalNAc(b1-4)]Gal(b1-4)Glc
# How it was run: as §1
# [19] = molecular target: Neu5Ac(a2-8)Neu5Gc(a2-3)Gal(b1-4)GlcNAc
# How it was run: as §1
# [20] = molecular target: Neu5Ac(b1-6)GalNAc
# How it was run: as §1
# [21] = molecular target: Neu5Ac(b2-6)Gal(b1-4)GlcNAc
# How it was run: as §1
# [22] = molecular target: Neu5Ac(b2-6)GalNAc
# How it was run: as §1
# [23] = molecular target: Neu5Ac9Ac(a2-3)Gal(b1-3)GlcNAc
# How it was run: as §1
# [24] = molecular target: Neu5Ac9Ac(a2-3)Gal(b1-4)GlcNAc
# How it was run: as §1
# [25] = molecular target: Neu5Ac9Ac(a2-6)Gal(b1-4)GlcNAc
# How it was run: as §1
# [26] = molecular target: Neu5Gc(a2-3)Gal(b1-3)GlcNAc
# How it was run: as §1
# [27] = molecular target: Neu5Gc(a2-3)Gal(b1-3)[Fuc(a1-4)]GlcNAc
# How it was run: as §1
# [28] = molecular target: Neu5Gc(a2-3)Gal(b1-4)Glc
# How it was run: as §1
# [29] = molecular target: Neu5Gc(a2-3)Gal(b1-4)GlcNAc
# How it was run: as §1
# [30] = molecular target: Neu5Gc(a2-3)Gal(b1-4)GlcNAc(b1-3)Gal(b1-4)GlcNAc(b1-2)Man(a1-3)[Neu5Gc(a2-3)Gal(b1-4)GlcNAc(b1-3)Gal(b1-4)GlcNAc(b1-2)Man(a1-6)]Man(b1-4)GlcNAc(b1-4)GlcNAc
# How it was run: as §1
# [31] = molecular target: Neu5Gc(a2-3)Gal(b1-4)[Fuc(a1-3)]GlcNAc
# How it was run: as §1
# [32] = molecular target: Neu5Gc(a2-6)Gal(b1-4)GlcNAc
# How it was run: as §1
# [33] = molecular target: Neu5Gc(a2-6)GalNAc
# How it was run: as §1
# [34] = molecular target: Neu5Gc(a2-8)Neu5Ac(a2-3)Gal(b1-4)GlcNAc
# How it was run: as §1
# [35] = molecular target: Neu5Gc(a2-8)Neu5Gc(a2-3)Gal(b1-4)GlcNAc
# How it was run: as §1
# [36] = molecular target: Neu5Gc(a2-8)Neu5Gc(a2-3)Gal(b1-4)GlcNAc(b1-3)Gal(b1-4)GlcNAc
# How it was run: as §1
# [37] = molecular target: Neu5Gc(a2-8)Neu5Gc(a2-6)Gal(b1-4)GlcNAc
# How it was run: as §1
# [38] = molecular target: Neu5Gc(b2-6)Gal(b1-4)GlcNAc
# How it was run: as §1
binder,measurement,setting,value
B1,glycan array binding signal (z-score),[1],-0.254
same,glycan array binding signal (z-score),[2],-0.257
same,glycan array binding signal (z-score),[3],-0.057
same,glycan array binding signal (z-score),[4],-0.269
same,glycan array binding signal (z-score),[5],0.105
same,glycan array binding signal (z-score),[6],0.131
same,glycan array binding signal (z-score),[7],-0.169
same,glycan array binding signal (z-score),[8],-0.296
same,glycan array binding signal (z-score),[9],-0.282
same,glycan array binding signal (z-score),[10],0.457
same,glycan array binding signal (z-score),[11],0.479
same,glycan array binding signal (z-score),[12],-0.164
same,glycan array binding signal (z-score),[13],-0.288
same,glycan array binding signal (z-score),[14],-0.226
same,glycan array binding signal (z-score),[15],0.292
same,glycan array binding signal (z-score),[16],-0.008
same,glycan array binding signal (z-score),[17],-0.155
same,glycan array binding signal (z-score),[18],-0.214
same,glycan array binding signal (z-score),[19],0.778
same,glycan array binding signal (z-score),[20],-0.207
same,glycan array binding signal (z-score),[21],-0.208
same,glycan array binding signal (z-score),[22],-0.242
same,glycan array binding signal (z-score),[23],-0.247
same,glycan array binding signal (z-score),[24],0.656
same,glycan array binding signal (z-score),[25],-0.28
same,glycan array binding signal (z-score),[26],-0.199
same,glycan array binding signal (z-score),[27],-0.23
same,glycan array binding signal (z-score),[28],0.177
same,glycan array binding signal (z-score),[29],0.834
same,glycan array binding signal (z-score),[30],2.07
same,glycan array binding signal (z-score),[31],-0.216
same,glycan array binding signal (z-score),[32],-0.169
same,glycan array binding signal (z-score),[33],-0.235
same,glycan array binding signal (z-score),[34],0.454
same,glycan array binding signal (z-score),[35],0.744
same,glycan array binding signal (z-score),[36],1.13
same,glycan array binding signal (z-score),[37],-0.279
same,glycan array binding signal (z-score),[38],-0.057
